# According to the supplement of paper PMC12632987:
# Whole data set: some 4,500 sequences, median “median log2 fold change of GCK-ALFA target abundance (FLAG IP / Myc IP barcode read proportion)” near 0.078, cut for the lowest 2% near -0.6. The list shows a part of the results.
# B1: GBRAP_26_5488 (protein)
# chain: FEEEILDELEERTREILADEDPTLRAAVIAEAIDLLLEAIEEFEKNANDKEKQEKAKEEALKEMEEFLEKMGLSEEKREKLVEALREALEKALKEIQKKA
# B2: GBRAP_166_4964 (protein)
# chain: SEEELVEELKERIRELAEKAKTANYEEKLELLAEAAEAIREAREEGLSEESLRELLRLTLEEFSKVGLTLSTVAGALTILADLDEEEIDILEEVIEEVKA
# B3: GBRAP_35_5522 (protein)
# chain: DSDTLTVEMLVATIEDLTLAVPDMDVETAVQIATQLIKAAEELAKDIKNNVEGLKKLRDALAKLRDALEKHYGDDPLAQQVIAQIDKLIAEIDKMIKEAK
# B4: GBRAP_39_5686 (protein)
# chain: EEEEENEDVVSYLEGLAAKYLYETGKSLEEAFEEAKKILLKLAEEHPELKELIEKLIELAEKKGEEAKLALIGIAVLVKQGTPLEEIKENIEKVIAYFES
# B5: GBRAP_184_5275 (protein)
# chain: KVIHVDIVAETGEEAIKEVKKAAEKAKKEGAKLKINILLENSSVEETIKLFELLKKLKEEGIIEDAVVGIENEKTEEEIDTLLKAADEAGVKLVLAISDE
# B6: GBRAP_11_2780 (protein)
# chain: KKEKLEEIIKKAEEAIKLLDKLLEEGLDNEELRKELEKALKELRKLVEENMDEGTKKLVEIAEELWKKFLEDEENKEEYLEQMKAALRVLRGQALLELEE
# B7: GBRAP_160_4161 (protein)
# chain: SEEAEKLIEEVEELAKKAIEDIEGQSIEERAVIIAGYFGEIIMTLFESPVVSDETVDFAVKLRDELVKWLKENPDASLEEIKKKIEEVVKKIKEKIKEDA
# B8: GBRAP_160_4693 (protein)
# chain: SEKVEKFKKFVEEEFEEVVSLFDEVSREELAAAVRVAFGEIILEAEELGLLTDELDKVIDEEEEKIVNAILTNPNLTKEELKEMLEKAKEEIMAEVEKAS
# B9: GBRAP_128_3275 (protein)
# chain: MNEEIVKKAREFVEKLKKADEEEARKIAEEFAEWLGSVSTEEAEQAVDVIEERLDELSAEQLEILADVLEKHRDKFDPEKANLVAGLQVEALNEAEEKEE
# B10: GBRAP_52_5925 (protein)
# chain: SSERLREIAQKILDAALAGDEEGMKKLIEEVAKTLSDEEIKGVIRELAELVAELGPEHYDVFAKIADLLEDAVEKAGRDVELIQAAIAEGFGLLYDAEQA
# B11: GBRAP_160_4426 (protein)
# chain: SAKLEKAKKLITEIVEETAEMMEGESAEERIVLVRVAEGEILLELEELGLLTDEIEAVIDETFAAIAAHIAAHPDISQEELRALLKAAEEKIKKQLEKEA
# B12: GBRAP_52_6144 (protein)
# chain: MKEKIEAMAKEIVAALVAGDEEKARALLREAIKTFSLEELLELAKEAAKLIAKQGPDAEDLLARFMELWEEVGEEEGLEDETIDLIISTAAKTFVEEQAK
# B13: GBRAP_125_2964 (protein)
# chain: SEEEDLEALATLAKALGFDEDDVEEAVRLARKFGFKNTLIALFLAEGYDEVADLVEKLTEEEAKEVLKRLAEEIKKNPELTPEEVVKLAKELFEEVIAKK
# B14: GBRAP_128_3311 (protein)
# chain: IDEEIIKKAEELIKKIVEASVEEAAKLTEELIALMGEASEEEREIITELFKEALKELSAEKLEAVADVLRKNRPKLDPLAANEAAELEVEALNLAEEKEE
# B15: GBRAP_128_3344 (protein)
# chain: VDEAFLAEIRKLLEEMLEADEEEAKKLAEKIMEALVKASLEEVEAAAEIIRELLPKFSAEHLEILADELRKYRDKFTPEKQLVIADLEVELLNAAEEKEE
# B16: GBRAP_11_2737 (protein)
# chain: SKEKLKEIAKLAEEAAKLLEKLIKEGVDNEELRKEAEKALEKLEKAVKEYGDESLQKLAELAKEHFEEALKDPENAEQHLKEAAAALRVLEGQVLLDIEE
# B17: GBRAP_150_3909 (protein)
# chain: DLETLLTLAHTLIDILEAIIDGELELLPHALKIAKAILEEAKEIDEEIKKLAEELLKKLEEAKKLLEEGGKEEEIKKLLEEALKLAEEIEKLIEKKIKEK
# B18: GBRAP_84_7006 (protein)
# chain: EREEEIVKLTKEILEKGSIELKALLLTYLILKNENKAATLALNDLLKEDPEAAVEALDRATEAYEEGKEEEVEKELKEKAKKEGKEVAELVEKLIKLLEE
# B19: GBRAP_160_4016 (protein)
# chain: SAEIEKLKKEIEEEFEELKEDMKGLTPEERITLARGTAGLVLQLVESSPAVSDETEEEVAKILDAFVAEVEANADAPLAVHDKLIDDTLEKIKELLDKDE
# Target: GABARAP, O95166
# Test: median log2 fold change of GCK-ALFA target abundance (FLAG IP / Myc IP barcode read proportion) (log2 ratio); each designed protein is fused to an ALFA-tag nanobody in HEK293 cells to bring the named protein to FLAG-tagged glucokinase (GCK); Myc marks an untargeted standard; higher = target protein stabilised (more abundant)
# Settings: target protein: 3xFLAG-MCP-GCK-ALFA reporter; HEK293 landing pad (RPLP)
# Summary of the method: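 An ALFA-nanobody-fused binder library was recombined into HEK293 landing-pad cells and induced with 2 μg mL^−1 doxycycline. Cells were transfected with a plasmid expressing a FLAG-tagged target and a Myc-tagged standard. After 48 h, lysates underwent anti-FLAG and anti-Myc immunoprecipitation, and circular RNA barcodes were reverse transcribed, amplified and sequenced. Target abundance is the per-binder median log2 ratio of FLAG to Myc barcode read proportions. Barcodes needed ≥10^−7 proportion in both replicates, binders ≥3 barcodes per replicate, and a 10^−6 pseudocount was added; the two replicates were pooled.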
# GABARAP, O95166, sequence (O95166 whole entry, the tested form may be a part): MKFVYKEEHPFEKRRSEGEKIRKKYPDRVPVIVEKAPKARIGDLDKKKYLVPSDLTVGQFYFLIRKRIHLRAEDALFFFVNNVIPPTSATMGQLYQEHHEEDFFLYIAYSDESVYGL
row,Binder,median log2 fold change
1,B1,0.257
2,B2,-0.131
3,B3,-0.0356
4,B4,0.293
5,B5,-0.234
6,B6,0.225
7,B7,0.164
8,B8,-0.166
9,B9,0.242
10,B10,0.165
11,B11,-0.243
12,B12,0.125
13,B13,-0.94
14,B14,0.183
15,B15,0.28
16,B16,0.33
17,B17,0.294
18,B18,-0.666
19,B19,0.248
